Source: the RNAGym collection of RNA variant scans (doi:10.1093/nar/gkz1192)
Read counts are not given, so values of variants with three or more changes are uncertain.

B1: CPEB3 Ribozyme (parent)
chain: UAACAGGGGGCCACAGCAGAAGCGUUCACGUCGCAGCCCCUGUCAGAUUCUGGUGAAUCUGCGAAUUCUGCUGUAUAUCUC

Variants of: B1
Assay: self-cleavage, relative activity (ratio to wild type); higher = more cleavage; in vitro, sequencing
Method in brief: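 Libraries of CPEB3 self-cleaving ribozyme mutants came from rounds of error-prone PCR and carried barcodes, which DNA sequencing matched to variants. In vitro transcription used T7 RNA polymerase at 37°C for 5 hours, with a further 15 min in DNase I before EDTA stopped the reaction; the ribozymes cleaved during both steps. The RNA was reverse transcribed with template switching and sequenced on Illumina. Relative activity is the cleaved/total read fraction of a variant divided by that of the unmutated ribozyme, averaged over three batches with at least 5 reads.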

| Variant | self-cleavage |
| --- | --- |
| UAACAGGGGGCCACAGCUGAAGCGUUCACGUCGCAGCCCCUGUCAGAUUCUGGUGAAUCCGCGGACUCUGCUGUAUAUCUC [A18U U60C A64G U66C] | 0.11 |
| UAACAGGGGGCCACAGCUGAAGCGUUCACGUCGCAGCCCCUGUCAGAUUCUGGUGAAUCCGCGAAUCCUGCUGUAUACCUC [A18U U60C U67C U78C] | 0.06 |
| UAACAGGGGGCCACAGCUGAAGCGUUCACGUCGCAGCCCCUGUCAGAUUCUGGUGAAUCUGCGAACUCAGCUGUAUACCUC [A18U U66C U69A U78C] | 0.25 |
| UAACAGGGGGCCACAGCUGAAGCGUUCACGUCGCAGCCCCUGUCAGAUUCUGGUGAAUCUGCGAACUCUGCUGGAUAUCUC [A18U U66C U74G] | 0.23 |
| UAACAGGGGGCCACAGCUGAAGCGUUCACGUCGCAGCCCCUGUCAGAUUCUGGUGAAUCUGCGAAUCCUGAUGUAUAUCUC [A18U U67C C71A] | 0.15 |
| UAACAGGGGGCCACAGCUGAAGCGUUCACGUCGCAGCCCCUGUCAGAUUCUGGUGAAUCUGCGAAUUCCGCGGUAUAUCUC [A18U U69C U72G] | 0.31 |
| UAACAGGGGGCCACAGCAAGAGCGUUCACGUCGCAGCCCCCGUCAGAUUCUGGUGAAUCUGCGAAUUCUGCUGUAUAUCUC [G19A A20G U41C] | 0.37 |
| UAACAGGGGGCCACAGCAAAGGCGUUCACGUCGCAGCCCCUGUCUGAUUCAGGUGAAUCUGCGAAUUCUACUCUAUACCUC [G19A A21G A45U U51A G70A G73C U78C] | 0.03 |
| UAACAGGGGGCCACAGCAAAGGCGUACUCGUCGCAGCCCCUGUCAGAUUCUGGUGAAUCUGCGAAUUCUGCUGUAUAUCUC [G19A A21G U26A A28U] | 0.33 |
| UAACAGGGGGCCACAGCAAAUGCGUUCUCGGCGCAGCCCCUGUCAGAUUCUGGUGAAUCUGCGAAUUCUGCUGUAUAUCUC [G19A A21U A28U U31G] | 0.08 |
| UAACAGGGGGCCACAGCAAAAGCGUUCGCGUCGCAGCCCCUGUCAGAUUCUGGCGAAUCUGCGAAUUCUGCUGUAAAUCUC [G19A A28G U54C U76A] | 0.05 |
| UAACAGGGGGCCACAGCAAAAGCGUUCUCGUCGCGGCCCCUGUCAGAUUCUGGUGAAUCUGCGAAUUCUGCUGUAUAUCUC [G19A A28U A35G] | 0.54 |
| UAACAGGGGGCCACAGCAAAAGCGUUCACGUCGCGGCCCCUGUCAGGUUCUGGUGAAUCUGCGAAUUCCGCUGUAUAUCUC [G19A A35G A47G U69C] | 0.24 |
| UAACAGGGGGCCACAGCAAAAGCGUUCACGUCGCGGCCCCUGUCAGAUUCUGGUGAAUCCGCGAAUUCUGCUGUAUUUCUC [G19A A35G U60C A77U] | 0.35 |
| UAACAGGGGGCCACAGCAAAAGCGUUCACGUCGCAGCCCCUGUCGGAUUCAGGUGAAUCUGCGAAUUCUGCAGUAUUCCUC [G19A A45G U51A U72A A77U U78C] | 0.08 |
| UAACAGGGGGCCACAGCAAAAGCGUUCAGGUCGCAGCCCCUGUCAGAUUCUGGUGAACCUGCGAAUACUGCUGUAUAUCCC [G19A C29G U58C U67A U80C] | 0.15 |
| UAACAGGGGGCCACAGCAAAAGCGUUCAUGUCGCAGCCCCUGUCAGAUUCUGGUGAAUCUGCGAACUCUGCUGUAUAUCUC [G19A C29U U66C] | 0.1 |

| Variant | self-cleavage |
| --- | --- |
| UAACAGGGGGCCACAGCAAAAGCGUUCACGUUGCAGCCCCUGUCAGAUUCAGGUGAAUCCGCGAAUCCUGCUGUAUAUCUC [G19A C32U U51A U60C U67C] | 0.05 |
| UAACAGGGGGCCACAGCAAAAGCGUCCACGUCGCAGCCCCUGUCAGAUUCUGGUGAAUCAGCGAAUUCUGCUGUAUAUCUC [G19A U26C U60A] | 0.35 |
| UAACAGGGGGCCACAGCAAAAGCGUUCACGACGCAGCCACUGUCAUAUUCUGGUGAAUCUGCGAAUUCUGCUGUAUAUCAC [G19A U31A C39A G46U U80A] | 0.06 |
| UAACAGGGGGCCACAGCAAAAGCGUUCACGCCGCAGCCCCUGUCAGAUUCUGGUGAACCUGCGAGUUCCGCUGUAUAUCUC [G19A U31C U58C A65G U69C] | 0.1 |
| UAACAGGGGGCCACAGCAAAAGCGUUCACGUCGCAGCCCCAGUCUGAUUCUGGUGGAUCUGCGAAUUCUGCAGUAUAUCUC [G19A U41A A45U A56G U72A] | 0.19 |
| UAACAGGGGGCCACAGCAAAAGCGUUCACGUCGCAGCCCCUGCCAGAUUCUGGUGAACCUGCGAAUUCUGCUGUAUAUCUC [G19A U43C U58C] | 0.18 |
| UAACAGGGGGCCACAGCAAAAGCGUUCACGUCGCAGCCCCUGUCAGAUCCUGGUGGAUCUGCGAAUUCUGCUGUAUAUCCC [G19A U49C A56G U80C] | 0.43 |
| UAACAGGGGGCCACAGCAAAAGCGUUCACGUCGCAGCCCCUGUCAGAUCCUGGUGAAUCCGCGAAUUCUGCUGUAUAUCUC [G19A U49C U60C] | 0.15 |
| UAACAGGGGGCCACAGCACUAGCGUUCACGUCGCAGCCCCUGACAGAUUCUGGUGAAUCUGCGAAUUCUGCUGUAUAUCUC [G19C A20U U43A] | 0.23 |
| UAACAGGGGGCCACAGCACAGGCGUUCACGUCGCAGCACCUGUCAGAUUCUGGUGAAUCUGCGAAUUCUGCUGUAUAUCUC [G19C A21G C38A] | 0.26 |
| UAACAGGGGGCCACAGCACAAGCGUUCCCGUCGCAGCCACUGUCAGAUUCUGGUGAAUCUGCGAAUUCUGCUGUAUAUCUC [G19C A28C C39A] | 0.09 |
| UAACAGGGGGCCACAGCACAAGCGUUCUCGUCGCAGCCCCUGUCAGACUCUAGUGAAUCUGCGAAUUCUGCUGUAUAUCUC [G19C A28U U48C G52A] | 0.23 |
| UAACAGGGGGCCACAGCACAAGCGUUCACGUCGCAGUCCCUGUCAGAUUCUGGUGAAUCUGCUAAUUCUGCUGUAUAUCUC [G19C C37U G63U] | 0.21 |
| UAACAGGGGGCCACAGCACAAGCAUUCACGUUGCAGCCCCUGUCAGAUCCUGGUGUAUCUGCGAAUUCUGCUGUACAUCUC [G19C G24A C32U U49C A56U U76C] | 0.03 |
| UAACAGGGGGCCACAGCACAAGCGUUCACGUCUCAGCCCCUGUCAGAUUCUGGUGAAUCUACGAGUUCUGCUGUAUAUCUC [G19C G33U G61A A65G] | 0.05 |
| UAACAGGGGGCCACAGCACAAGCGUUCACGUCGCAGCCCCUGUCAGAUUCUUGUGAAUCUGCGAAUACCGCCGUAUAUCUC [G19C G52U U67A U69C U72C] | 0.16 |
| UAACAGGGGGCCACAGCACAAGCGUACUCGUCGUAGCCCCUGCCAGAUCCUGGUGAAUCUGCGAAUUCUGCUGUAUAUCUC [G19C U26A A28U C34U U43C U49C] | 0.04 |
